Hit rate of the full screen: of about 45,000 compounds, about 200 (0.44%) were called active. About 7% were inconclusive and are not listed. Calls follow the shape of the dose curve; as a rule, active = well fitted activation curve with a large enough effect; inconclusive = small, poorly fitted or top-dose-only effect; inactive = no such curve, though single readings can be large or run the other way. The list shows a part of the results.
test: qHTS of TDP-43 Inhibitors: NCGC Sytravon Library Screen; details: yeast TDP-43 toxicity rescue, BacTiter-Glo growth, 24 h; series mostly up to 46.1 µM; growth rescue (activation): at the top concentration; also: 0% is about no effect; nearly all actives have a fitted effect of over 55% in size
Outline: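 TDP-43-expressing yeast, pregrown in raffinose, seeded at OD600 0.02 in galactose medium with compound for 24 hr at 30 deg C. Growth read by BacTiter-Glo luminescence, so rescue of toxicity appears as activation.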

| SMILES | growth rescue (activation) |
| --- | --- |
| CCC(CC)c1nnc(NC(=O)C2CC(=O)N(CCc3ccc(F)cc3)C2)s1 (stereo not drawn) | inactive: 19.6% |
| Cn1cccc1C(=O)OCC(=O)c1c[nH]c2ccccc12 | inactive: 21.2% |
| COCCN1Cc2cccc(C(=O)NC(C)CCc3ccco3)c2C1=O (stereo not drawn) | inactive: -12.3% |
| Cc1cc(C)n2nc(SCCOc3ccc(F)cc3)nc2n1 | inactive: 28.9% |
| Cc1ccc(C)c(NC(=O)COC(=O)c2nn(C)c(=O)c3ccccc23)c1 | inactive: 8.11% |
| COCCSc1nc(N)c2c3c(sc2n1)CN(C)CC3 | inactive: -19.9% |
| Nc1ncc(Br)cc1S(=O)(=O)Nc1cc(C(F)(F)F)cc(C(F)(F)F)c1 | inactive: 8.46% |
| CC1CCC2(CC1)NC(=O)N(CC(=O)Nc1ccccc1-c1ccccc1)C2=O (stereo not drawn) | inactive: 13.7% |
| O=C(CC(c1ccccc1)c1ccccc1O)NCc1ccccc1 (stereo not drawn) | inactive: 5.94% |
| COC(=O)Cc1ccc(NC(=S)Nc2ccccn2)cc1 | inactive: 11.1% |
| COc1cc2c(cc1OC)CN(S(=O)(=O)/C=C/c1ccccc1)CC2 | inactive: 14.8% |
| Cc1ccc(-c2csc3nc(CSc4nnc(-c5ccc(Cl)cc5)n4C)[nH]c(=O)c23)cc1 | inactive: 13.4% |
| COc1ccc(C(=O)Nn2c(CC(C)C)nc3cc(Cl)ccc3c2=O)c(OC)c1 | inactive: 10.3% |
| COCc1c(C(=O)N2CCN(Cc3c(F)cccc3Cl)CC2)oc2ccccc12 | inactive: 30.3% |
| CC1CC(C)CN(c2cc3c(cc2[N+](=O)[O-])C(=O)N(c2ccccc2)C3=O)C1 (stereo not drawn) | inactive: 9.02% |
| Nn1c(Cc2ccc(Br)cc2)n[nH]c1=S | inactive: 10.6% |
| COc1ccc(CCNc2ncnc3sc(C)cc23)cc1OC | inactive: 15.1% |
| C=CCC(NCc1ccccc1)c1ccc(OC)cc1 (stereo not drawn) | inactive: -20.4% |
| CCOC(=O)c1sc2nc(C)[nH]c(=S)c2c1C | inactive: 23.2% |
| Cc1ccc(S(=O)(=O)/N=C(\c2ccccc2)N(C)S(=O)(=O)c2ccccc2)cc1 | inactive: 18.4% |
| COC(=O)Cc1c(CSc2ccccc2)oc2ccc(O)c(CN(C)C)c12 | inactive: -6% |
| CCOc1ccccc1/C=C(\C#N)C(=O)Nc1cccc(C(=O)O)c1 | inactive: 14.5% |
| OC[C@H]1O[C@@H](c2nc3ccc(-c4nc(-c5cccs5)no4)cc3[nH]2)C[C@@H]1O | inactive: 8.33% |
| CCN1CCN(C(=O)/C=C/c2ccccc2[N+](=O)[O-])CC1 | inactive: 4.1% |
| O=C(COC(=O)c1n[nH]c2ccccc12)Nc1ccc(Cl)cc1[N+](=O)[O-] | inactive: -2.33% |
| CC1CCCCN1C(=O)c1ccc(OC2CCN(S(=O)(=O)N(C)C)CC2)cc1 (stereo not drawn) | inactive: 1.03% |
| O=C(NCC(=O)N(c1ccccc1F)C(C(=O)NC1CCCC1)c1ccco1)c1ccco1 (stereo not drawn) | inactive: -2.14% |

| SMILES | growth rescue (activation) |
| --- | --- |
| CC(NC(=O)c1ccc(N(C)C)cc1)c1ccc(F)cc1 (stereo not drawn) | inactive: 16.3% |
| COc1cccc(C(=O)Nn2cnnc2)c1 | inactive: -6.4% |
| O=c1ccccn1CCOc1ccccc1Cl | inactive: 11.1% |
| O=C(O)Cc1ccc(-n2cccc2)cc1 | inactive: -1.34% |
| CC(C)Oc1cccc(NC(=O)C2(C)CCCN(C)C2)c1 (stereo not drawn) | inactive: 10.8% |
| CCOC(=O)C1(CCc2ccccc2)CCN(C(=O)C(C)n2cncn2)CC1 (stereo not drawn) | inactive: 1.34% |
| O=C(CSCc1c(F)cccc1F)Nc1ccccc1 | inactive: 29% |
| COc1ccccc1/C=C/c1nc(C#N)c(NCc2ccccc2)o1 | inactive: 24.1% |
| CC(=O)Nc1nc(CC(C)C)cc(-c2ccccc2)c1C#N | inactive: 11.6% |
| NS(=O)(=O)c1ccc(CCNC(=O)COC(=O)c2ccc([N+](=O)[O-])o2)cc1 | inactive: 0.155% |
| O=C(CNC(=O)c1ccc(Br)cc1)NCC(=O)OCC(=O)c1ccccc1 | inactive: -3.14% |
| COc1ccc(-c2nn(-c3ccccc3)cc2/C=C2/SC(=S)N(CCC(=O)O)C2=O)c(C)c1 | inactive: -2.04% |
| CCc1ccccc1N(CC)C(=O)c1cc2c(s1)-c1ccccc1SC2 | inactive: 14.4% |
| O=C(C1CC(=O)N(c2ccc(F)cc2)C1)N1CCCCC1 (stereo not drawn) | inactive: 0.339% |
| CC[n+]1c(C)n(-c2ccccc2)c2ccc(NC(C)=O)cc21 | inactive: -8.31% |
| CC(=O)Nc1ccc(N=c2cc([N+](=O)[O-])cc(Cl)n2O)cc1 | inactive: 18% |
| CSc1nc2ccc(NC(=O)c3ccc(F)c(F)c3)cc2s1 | inactive: 24.3% |
| CCNC(=O)C(=O)Nc1ccc([N+](=O)[O-])cc1 | inactive: -9.75% |
| Cn1nnc(NC(=S)NC(=O)c2ccco2)n1 | inactive: -0.465% |
| CN(CC(=O)Nc1cc(Cl)cc(Cl)c1)Cc1cccs1 | inactive: 7.38% |
| COc1ccccc1NS(=O)(=O)c1ccc(N/N=C/c2ccccc2OCC(=O)O)c([N+](=O)[O-])c1 | inactive: -7.08% |
| CCN(CC)CCOC(=O)c1ccc(NC(=O)CCCN2C(=O)/C(=C/c3cccs3)SC2=S)cc1 | inactive: 11% |
| Cc1cc(NC(=O)CSc2nc3ccccc3cc2C#N)no1 | inactive: 1.41% |
| CC(OC(=O)C1CC1)C(=O)Nc1cccc(S(=O)(=O)N2CCOCC2)c1 (stereo not drawn) | inactive: -16.8% |
| Cc1cc(C)c(Cn2cnc3ccccc32)c(C)c1 | inactive: -18.9% |
| Cc1ccc([N+](=O)[O-])cc1S(=O)(=O)NCCc1c(C)[nH]c2ccccc12 | inactive: -2.43% |

Reference: PubChem BioAssay AID1347073 (National Center for Advancing Translational Sciences (NCATS), 2019)
